According to paper PMC4288184:
No constants are given. Whether binding was seen depends on the method and setting. Binding seen in cells or lysates may run through a third protein. Some entries that bind do so weakly or less than the wild type. Where a sequence is shown, tags or fusion partners need not be part of it. Blank lines part the entries; values can stand above or below the binder they belong to.

How the values were obtained:
[1] = biological target: T1, GST-hHMGA2 N1 (aa 1–35) (human) (UniProt P52926); assay: pull-down; purified GST-HMGA2 fusion proteins as bait, cell extracts from MDA-MB-231 and MCF10CA1a breast cancer cells, endogenous CTCF (Supplementary Figure S4B); only the target purified
T1 sequence: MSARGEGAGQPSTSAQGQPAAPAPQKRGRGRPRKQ

[2] = biological target: T2, GST-hHMGA2 ΔC (aa 1–83) (human) (UniProt P52926); assay: as above
T2 sequence: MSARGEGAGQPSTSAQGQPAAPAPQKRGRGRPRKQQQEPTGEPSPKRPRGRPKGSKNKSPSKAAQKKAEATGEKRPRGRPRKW

[3] = biological target: T3, GST-hHMGA2 C (aa 94–109) (human) (UniProt P52926); assay: as above
T3 sequence: QEETEETSSQESAEED

[4] = biological target: T4, GST-hHMGA2 N2 (aa 1–25) (human) (UniProt P52926); assay: as above
T4 sequence: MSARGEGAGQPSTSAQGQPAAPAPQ

[5] = biological target: T1, GST-hHMGA2 N1 (aa 1–35) (human); assay: pull-down; purified GST-HMGA2 fusion proteins as bait, HEK293T cell extracts, immunoblot for endogenous CTCF; only the target purified
[6] = biological target: T2, GST-hHMGA2 ΔC (aa 1–83) (human); assay: as above
[7] = biological target: T3, GST-hHMGA2 C (aa 94–109) (human); assay: as above
[8] = biological target: T4, GST-hHMGA2 N2 (aa 1–25) (human); assay: as above

binding [1]: binds | binding [2]: binds | binding [3]: no binding | binding [4]: no binding
B1: CCCTC-binding factor (CTCF), endogenous in MCF10CA1a cells (protein, UniProt P49711 1-727)
chain: MEGDAVEAIVEESETFIKGKERKTYQRRREGGQEEDACHLPQNQTDGGEVVQDVNSSVQMVMMEQLDPTLLQMKTEVMEGTVAPEAEAAVDDTQIITLQVVNMEEQPINIGELQLVQVPVPVTVPVATTSVEELQGAYENEVSKEGLAESEPMICHTLPLPEGFQVVKVGANGEVETLEQGELPPQEDPSWQKDPDYQPPAKKTKKTKKSKLRYTEEGKDVDVSVYDFEEEQQEGLLSEVNAEKVVGNMKPPKPTKIKKKGVKKTFQCELCSYTCPRRSNLDRHMKSHTDERPHKCHLCGRAFRTVTLLRNHLNTHTGTRPHKCPDCDMAFVTSGELVRHRRYKHTHEKPFKCSMCDYASVEVSKLKRHIRSHTGERPFQCSLCSYASRDTYKLKRHMRTHSGEKPYECYICHARFTQSGTMKMHILQKHTENVAKFHCPHCDTVIARKSDLGVHLRKQHSYIEQGKKCRYCDAVFHERYALIQHQKSHKNEKRFKCDQCDYACRQERHMIMHKRTHTGEKPYACSHCDKTFRQKQLLDMHFKRYHDPNFVPAAFVCSKCGKTFTRRNTMARHADNCAGPDGVEGENGGETKKSKRGRKRKMRSKKEDSSDSENAEPDLDDNEDEEEPAVEIEPEPEPQPVTPAPPPAKKRRGRPPGRTNQPKQNQPTAIIQVEDQNTGAIENIIVEVKKEPDAEPAEGEEEEAQPAATDAPNGDLTPEMILSMMDR

binding [1]: binds | binding [2]: binds | binding [3]: no binding | binding [4]: no binding
B2: CCCTC-binding factor (CTCF), endogenous in MDA-MB-231 cells (protein, UniProt P49711 1-727)
chain: B1 chain

binding [5]: binds weakly | binding [6]: binds | binding [7]: no binding | binding [8]: no binding
B3: CCCTC-binding factor (CTCF), endogenous in HEK293T cells (protein, UniProt P49711 1-727)
chain: B1 chain
